Assay results: paper PMC11352460, “RILP Induces Cholesterol Accumulation in Lysosomes by Inhibiting Endoplasmic Reticulum–Endolysosome Interactions” (Cells, 2024)
Read-outs that look alike come from different tables or passages of the source. Results are given in words; binding and its absence hold for the method and conditions named. Binding seen in cells or lysates may run through a third protein. Some entries that bind do so weakly or less than the wild type. For part of these data: Where a sequence is shown, tags or fusion partners need not be part of it. Each block holds one molecule with its values, some of them ahead of it.

Protein sequences, listed by entry. Tags and fused reporters are not part of them.
UniProt Q9H4L5: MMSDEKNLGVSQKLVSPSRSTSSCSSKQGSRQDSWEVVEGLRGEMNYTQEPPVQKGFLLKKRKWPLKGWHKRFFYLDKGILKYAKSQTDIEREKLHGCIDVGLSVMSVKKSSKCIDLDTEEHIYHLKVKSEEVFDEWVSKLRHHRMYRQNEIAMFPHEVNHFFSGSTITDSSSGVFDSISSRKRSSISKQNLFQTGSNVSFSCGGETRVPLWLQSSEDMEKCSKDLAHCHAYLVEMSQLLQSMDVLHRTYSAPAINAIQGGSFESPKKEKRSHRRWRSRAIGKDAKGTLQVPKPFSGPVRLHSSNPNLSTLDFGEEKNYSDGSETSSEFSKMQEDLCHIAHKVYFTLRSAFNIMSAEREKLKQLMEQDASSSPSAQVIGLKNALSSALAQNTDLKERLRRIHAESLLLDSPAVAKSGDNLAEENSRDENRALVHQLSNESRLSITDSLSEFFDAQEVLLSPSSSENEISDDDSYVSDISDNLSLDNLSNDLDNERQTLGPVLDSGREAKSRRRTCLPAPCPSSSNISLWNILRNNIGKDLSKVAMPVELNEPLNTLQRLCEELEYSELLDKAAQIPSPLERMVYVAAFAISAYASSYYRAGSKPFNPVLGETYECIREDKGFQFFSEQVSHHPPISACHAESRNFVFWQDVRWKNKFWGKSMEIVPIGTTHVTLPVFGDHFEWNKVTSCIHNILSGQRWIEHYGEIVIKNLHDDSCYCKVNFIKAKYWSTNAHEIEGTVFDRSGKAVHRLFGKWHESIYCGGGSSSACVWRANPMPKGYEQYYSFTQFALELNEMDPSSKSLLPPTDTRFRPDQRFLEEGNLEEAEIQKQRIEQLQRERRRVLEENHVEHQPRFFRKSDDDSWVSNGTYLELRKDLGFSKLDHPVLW

Columns and labels:
[1] = target: GST-RILP (Rab7-interacting lysosomal protein) (UniProt Q96NA2); test: pull-down; GST-fusion protein coupled to GST-Sepharose 4B resin incubated with HEK-293T lysate containing the GFP-tagged protein, 4 °C overnight; lysis buffer 20 mM HEPES pH 7.4, 1% Triton X-100, 100 mM NaCl, 5 mM MgCl2; washes with 500, 300 and 100 mM NaCl; Western blot with GFP antibody; only the target purified
GST-VAPa(1-225aa) [2] = target: T1, GST-VAPa(1-225aa) (UniProt Q9P0L0); test: pull-down; GST-VAPa(1-225aa) on beads with lysates of Hela cells co-transfected with GFP-ORP1L and increasing amounts of myc-RILP; Western blot; only the target purified
T1 sequence: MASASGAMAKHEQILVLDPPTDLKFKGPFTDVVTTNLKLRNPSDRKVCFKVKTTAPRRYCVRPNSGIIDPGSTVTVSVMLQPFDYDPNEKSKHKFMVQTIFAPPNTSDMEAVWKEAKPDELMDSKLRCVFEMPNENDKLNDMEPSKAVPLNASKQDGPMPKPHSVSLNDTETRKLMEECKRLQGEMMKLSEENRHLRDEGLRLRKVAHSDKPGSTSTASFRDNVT

GST-RILP(1-198aa) = GST-RILP(1-198aa) (UniProt Q96NA2); test: pull-down; GST-fusion protein coupled to GST-Sepharose 4B resin incubated with HEK-293T lysate containing the GFP-tagged protein, 4 °C overnight; lysis buffer 20 mM HEPES pH 7.4, 1% Triton X-100, 100 mM NaCl, 5 mM MgCl2; washes with 500, 300 and 100 mM NaCl; Western blot with GFP antibody; only the target purified
[3] = target: T2, GFP-ORP1L (OSBP-related protein 1L), Q9BXW6; test: pull-down; same experiment as a2, for the pair myc-RILP and GFP-ORP1L, both in the Hela lysate: competition read out as loss of ORP1L from GST-VAPa(1-225aa); settings: remark: other sources report otherwise
T2 chain: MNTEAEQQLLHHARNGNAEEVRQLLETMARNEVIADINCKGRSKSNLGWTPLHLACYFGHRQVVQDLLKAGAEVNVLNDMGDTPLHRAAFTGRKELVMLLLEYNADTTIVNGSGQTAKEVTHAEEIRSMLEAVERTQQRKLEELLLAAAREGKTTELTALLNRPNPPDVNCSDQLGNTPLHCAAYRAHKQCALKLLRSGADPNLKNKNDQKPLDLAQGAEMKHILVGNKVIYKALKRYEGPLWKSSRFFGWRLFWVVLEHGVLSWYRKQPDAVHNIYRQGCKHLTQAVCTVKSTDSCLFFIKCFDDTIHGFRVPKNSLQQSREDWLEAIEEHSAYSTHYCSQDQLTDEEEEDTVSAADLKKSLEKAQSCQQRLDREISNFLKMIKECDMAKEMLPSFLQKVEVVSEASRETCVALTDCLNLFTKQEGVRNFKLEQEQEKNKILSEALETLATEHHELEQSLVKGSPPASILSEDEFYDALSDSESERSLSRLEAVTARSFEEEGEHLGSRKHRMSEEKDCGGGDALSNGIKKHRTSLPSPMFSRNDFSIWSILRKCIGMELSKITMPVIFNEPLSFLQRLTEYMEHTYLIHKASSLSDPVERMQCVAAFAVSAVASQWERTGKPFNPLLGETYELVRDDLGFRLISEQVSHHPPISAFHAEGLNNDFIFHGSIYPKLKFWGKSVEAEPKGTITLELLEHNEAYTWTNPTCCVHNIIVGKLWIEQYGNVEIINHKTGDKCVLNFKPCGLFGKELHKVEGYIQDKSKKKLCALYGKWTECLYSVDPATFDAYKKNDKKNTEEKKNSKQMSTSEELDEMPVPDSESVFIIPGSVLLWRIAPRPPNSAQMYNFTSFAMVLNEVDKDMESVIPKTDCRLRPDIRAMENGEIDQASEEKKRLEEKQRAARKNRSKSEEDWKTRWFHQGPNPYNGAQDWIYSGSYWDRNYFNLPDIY

[4] = target: GST-RILP (Rab7-interacting lysosomal protein) (UniProt Q96NA2); test: pull-down; GST-fusion protein coupled to GST-Sepharose 4B resin incubated with HEK-293T lysate containing the GFP-tagged protein, 4 °C overnight; lysis buffer 20 mM HEPES pH 7.4, 1% Triton X-100, 100 mM NaCl, 5 mM MgCl2; washes with 500, 300 and 100 mM NaCl; Western blot with GFP antibody; only the target purified; remark: listed apart in the source
GST-VAPa(1-225aa) [5] = target: T1, GST-VAPa(1-225aa); test: as above

Molecule: GFP-ORP3 (from UniProt Q9H4L5 1-887)
binding [1]: binds

B1: GFP-ORP1L (OSBP-related protein 1L) (protein, UniProt Q9BXW6-1 1-950)
chain: T2 chain
binding (GST-VAPa(1-225aa) [2]): binds
binding (GST-RILP(1-198aa)): binds

Now from value to molecule:

binding [3]: binds
B2: myc-RILP, Q96NA2 1-401 (protein)
chain: MEPRRAAPGVPGWGSREAAGSASAAELVYHLAGALGTELQDLARRFGPEAAAGLVPLVVRALELLEQAAVGPAPDSLQVSAQPAEQELRRLREENERLRRELRAGPQEERALLRQLKEVTDRQRDELRAHNRDLRQRGQETEALQEQLQRLLLVNAELRHKLAAMQTQLRAAQDRERERQQPGEAATPQAKERARGQAGRPGHQHGQEPEWATAGAGAPGNPEDPAEAAQQLGRPSEAGQCRFSREEFEQILQERNELKAKVFLLKEELAYFQRELLTDHRVPGLLLEAMKVAVRKQRKKIKAKMLGTPEEAESSEDEAGPWILLSDDKGDHPPPPESKIQSFFGLWYRGKAESSEDETSSPAPSKLGGEEEAQPQSPAPDPPCSALHEHLCLGASAAPEA

binding [4]: binds
binding (GST-VAPa(1-225aa) [5]): binds
B3: GFP-ORP7 (protein, UniProt Q9BZF2 1-842)
chain: MDFQERDPPFLPESAQSSKPSSAQQASELWEVVEEPRVRLGTEGVMPERQEGHLLKKRKWPLKGWHKRYFVLEDGILHYATTRQDITKGKLHGSIDVRLSVMSINKKAQRIDLDTEDNIYHLKIKSQDLFQSWVAQLRAHRLAHRLDMPRGSLPSTAHRKVPGAQLPTAATASALPGLGPREKVSSWLRDSDGLDRCSHELSECQGKLQELHRLLQSLESLHRIPSAPVIPTHQASVTTERPKKGKRTSRMWCTQSFAKDDTIGRVGRLHGSVPNLSRYLESRDSSGTRGLPPTDYAHLQRSFWALAQKVHSSLSSVLAALTMERDQLRDMHQGSELSRMGVSEASTGQRRLHSLSTSSDTTADSFSSLNPEEQEALYMKGRELTPQLSQTSILSLADSHTEFFDACEVLLSASSSENEGSEEEESCTSEITTSLSEEMLDLRGAERCQKGGCVPGRPMGPPRRRCLPAASGPGADVSLWNILRNNIGKDLSKVSMPVQLNEPLNTLQRLCEELEYSSLLDQASRIADPCERMVYIAAFAVSAYSSTYHRAGCKPFNPVLGETYECERPDRGFRFISEQVSHHPPISACHAESENFAFWQDMKWKNKFWGKSLEIVPVGTVNVSLPRFGDHFEWNKVTSCIHNVLSGQRWIEHYGEVLIRNTQDSSCHCKITFCKAKYWSSNVHEVQGAVLSRSGRVLHRLFGKWHEGLYRGPTPGGQCIWKPNSMPPDHERNFGFTQFALELNELTAELKRSLPSTDTRLRPDQRYLEEGNIQAAEAQKRRIEQLQRDRRKVMEENNIVHQARFFRRQTDSSGKEWWVTNNTYWRLRAEPGYGNMDGAVLW
